By IC50 is meant the dose at which the fit gives 50% viability; a limit (>, <) means that the fit lies beyond the doses tested. For AUC the same curve is integrated over the 256-fold range of doses and scaled to a fraction; the more sensitive the line, the further below 1. For part of these data: Any top dose called inferred was calculated from the reported fits.
What was measured:
Experiment in all cases: Viability of human cancer cell lines after 72 h of drug (GDSC screen)
Etoposide = compound: COc1cc([C@@H]2c3cc4c(cc3[C@@H](O[C@@H]3O[C@@H]5CO[C@@H](C)O[C@H]5[C@H](O)[C@H]3O)[C@H]3COC(=O)[C@H]23)OCO4)cc(OC)c1O [Etoposide]; conditions: top dose 16 µM
Protocol: (§1)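 Human cancer cell lines in 384-well plates, medium with 10% serum, drug for 72 h over a 256-fold dose range (nine 2-fold or five 4-fold steps up to the top dose). Adherent lines were fixed and stained with the nucleic acid dye Syto60, suspension lines read with resazurin; signal relative to control wells, capped at 0 and 100%. One two-parameter sigmoid per drug and line, fitted in a mixed model over all curves with the slope shared within a line.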

AZD7762 = compound: NC(=O)Nc1cc(-c2cccc(F)c2)sc1C(=O)N[C@H]1CCCNC1 [AZD7762]; conditions: top dose 2 µM
Protocol: as §1

Bexarotene = compound: C=C(c1ccc(C(=O)O)cc1)c1cc2c(cc1C)C(C)(C)CCC2(C)C [Bexarotene]; conditions: top dose 8 µM
Protocol: as §1

NPK76-II-72-1 = compound: COc1cc(C(=O)NC2CCN(C)CC2)ccc1Nc1ncc2c(n1)N(C1CCCC1)C(C)CC(=O)N2C [NPK76-II-72-1]; conditions: top dose 10.24 µM; top dose inferred
Protocol: as §1

YK 4-279 = compound: COc1ccc(C(=O)CC2(O)C(=O)Nc3c(Cl)ccc(Cl)c32)cc1 [YK 4-279]; conditions: top dose 10 µM
Protocol: as §1

BMS-345541 = compound: Cc1ccc2nc(NCCN)c3ncc(C)n3c2c1 [BMS-345541]; conditions: top dose 16 µM
Protocol: as §1

GSK-650394 = compound: O=C(O)c1ccc(-c2c[nH]c3ncc(-c4ccccc4)cc23)cc1C1CCCC1 [GSK-650394]; conditions: top dose 16 µM; top dose inferred
Protocol: as §1

XAV 939 = compound: Oc1nc(-c2ccc(C(F)(F)F)cc2)nc2c1CSCC2 [XAV 939]; conditions: top dose 5 µM; top dose inferred
Protocol: as §1

Row | Cell Line | AUC (Etoposide) | IC50 (Etoposide) | AUC (AZD7762) | IC50 (AZD7762) | AUC (Bexarotene) | IC50 (Bexarotene) | AUC (NPK76-II-72-1) | IC50 (NPK76-II-72-1) | AUC (YK 4-279) | IC50 (YK 4-279) | AUC (BMS-345541) | IC50 (BMS-345541) | AUC (GSK-650394) | IC50 (GSK-650394) | AUC (XAV 939) | IC50 (XAV 939)
1 | OS-RC-2 (kidney, adherent) | 0.786 | 10.5 µM | 0.695 | 0.571 µM | 0.946 | > 8 µM | 0.974 | > 10.2 µM | 0.881 | > 10 µM | 0.857 | > 16 µM | 0.879 | > 16 µM | 0.94 | > 5 µM
2 | OSC-20 (head and neck, adherent) | 0.47 | 0.814 µM | 0.77 | 0.901 µM | 0.927 | > 8 µM | 0.94 | > 10.2 µM | 0.758 | 4.07 µM | 0.915 | > 16 µM | 0.73 | 5.19 µM | 0.955 | > 5 µM
3 | OVCAR-4 (ovary, adherent) | 0.758 | 8.26 µM | 0.605 | 0.28 µM | 0.913 | > 8 µM | 0.937 | > 10.2 µM | 0.724 | 3.78 µM | 0.867 | > 16 µM | 0.859 | > 16 µM | 0.823 | > 5 µM
4 | OVCAR-5 (ovary, adherent) | 0.568 | 1.59 µM | 0.561 | 0.19 µM | 0.977 | > 8 µM | 0.841 | 9.38 µM | 0.77 | 4.59 µM | 0.742 | 5.76 µM | 0.977 | > 16 µM | 0.962 | > 5 µM
5 | OVISE (ovary, adherent) | 0.842 | > 16 µM | 0.529 | 0.154 µM | 0.961 | > 8 µM | 0.915 | > 10.2 µM | 0.882 | > 10 µM | 0.864 | > 16 µM | 0.971 | > 16 µM | 0.905 | > 5 µM
6 | OVMIU (ovary, adherent) | 0.817 | 11.9 µM | 0.823 | 1.58 µM | 0.952 | > 8 µM | 0.914 | > 10.2 µM | 0.709 | 2.85 µM | 0.853 | > 16 µM | 0.947 | > 16 µM | 0.811 | 3.51 µM
7 | OVTOKO (ovary, adherent) | 0.747 | 6.35 µM | 0.502 | 0.127 µM | 0.895 | > 8 µM | 0.95 | > 10.2 µM | 0.731 | 3.46 µM | 0.893 | > 16 µM | 0.903 | > 16 µM | 0.946 | > 5 µM
8 | P12-ICHIKAWA (T-cell lymphoblastic leukaemia, suspension) | 0.339 | 0.399 µM | 0.686 | 0.36 µM | 0.987 | > 8 µM | 0.63 | 1.34 µM | 0.863 | 5.6 µM | 0.6 | 1.77 µM | 0.869 | 9.41 µM | 0.987 | > 5 µM
9 | P30-OHK (lymphoblastic leukaemia, suspension) | 0.488 | 0.934 µM | 0.527 | 0.146 µM | 0.99 | > 8 µM | 0.342 | 0.254 µM | 0.687 | 1.88 µM | 0.85 | 9.18 µM | 0.61 | 1.9 µM | 0.99 | > 5 µM
10 | P31-FUJ (acute myeloid leukaemia, suspension) | 0.995 | > 16 µM | 0.561 | 0.176 µM | 0.993 | > 8 µM | 0.986 | > 10.2 µM | 0.711 | 2.08 µM | 0.937 | > 16 µM | 0.995 | > 16 µM | 0.993 | > 5 µM
11 | P32-ISH (Burkitt lymphoma, suspension) | 0.645 | 2.26 µM | 0.473 | 0.107 µM | 0.957 | > 8 µM | 0.679 | 1.76 µM | 0.443 | 0.454 µM | 0.897 | 11.1 µM | 0.582 | 1.58 µM | 0.995 | > 5 µM
12 | PA-TU-8902 (pancreas, adherent) | 0.706 | 4.25 µM | 0.876 | > 2 µM | 0.945 | > 8 µM | 0.911 | > 10.2 µM | 0.625 | 1.47 µM | 0.912 | > 16 µM | 0.886 | > 16 µM | 0.976 | > 5 µM
13 | PA-TU-8988T (pancreas, adherent) | 0.561 | 1.47 µM | 0.93 | > 2 µM | 0.904 | > 8 µM | 0.949 | > 10.2 µM | 0.709 | 2.44 µM | 0.916 | > 16 µM | 0.576 | 1.61 µM | 0.971 | > 5 µM
14 | PANC-02-03 (pancreas, adherent) | 0.889 | > 16 µM | 0.623 | 0.293 µM | 0.982 | > 8 µM | 0.797 | 5.97 µM | 0.746 | 3.74 µM | 0.902 | > 16 µM | 0.975 | > 16 µM | 0.958 | > 5 µM
15 | PANC-03-27 (pancreas, adherent) | 0.586 | 1.69 µM | 0.553 | 0.173 µM | 0.975 | > 8 µM | 0.969 | > 10.2 µM | 0.617 | 1.28 µM | 0.886 | 15.7 µM | 0.934 | > 16 µM | 0.95 | > 5 µM

Reference: the supplement of paper PMC4967469
